{
  "source": "PubChem BioAssay AID1745845",
  "about": "(National Center for Advancing Translational Sciences (NCATS), 2022)",
  "note": "The campaign covered roughly 360,000 compounds. About 2,600 (0.72%) were called active. Inconclusive means that the source gave no clear call. Such entries were picked first, then a sample of the others. The call rests on the fitted dose curve; in most records, active means well fitted inhibition curve with a large enough effect; inconclusive means small, poorly fitted or top-dose-only effect; inactive means no such curve, though single readings can be large or run the other way. Potencies of inconclusive entries are doubtful fits and often do not repeat. On the % scale 0 is the no-effect control and ±100 the full control effect; potency means the concentration at half of the fitted maximal effect; tags describe the fitted curve by direction and shape.",
  "data": [
    {"experiment": "Primary qHTS for Inhibitors of ATXN expression; further: nearly all actives have a fitted effect of over 55% in size", "settings": "HEK-293 ATXN2-luciferase reporter, luminescence, 24 h; activity change, negative = inhibition: at 57 µM (top of the series)", "procedure,_shortened": "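ATXN2-luciferase reporter cells (luciferase flanked by upstream and downstream ATXN2 gene portions) were treated 24 h at 37 °C with compounds at up to 57 uM. SteadyGlo luminescence gave expression; GF-AFC fluorescence gave viability.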", "values": [
      {"smiles": "COC(=O)[C@@H]1[C@@H](C(=O)OC)C2(c3ccccc3-c3ccccc32)N(c2ccc(Cl)cc2)N1C#N", "Potency": "active: 7.08 µM"},
      {"smiles": "Cc1cccc(CN2CC=C(c3noc(CCC(=O)Nc4ccc(C)c(F)c4)n3)CC2)c1", "Potency": "inconclusive: 25.1 µM [inhibitor, partial curve]"},
      {"smiles": "Cc1cc(C(=O)Nc2ccccc2)nn1C(C)(C)C", "activity change, negative = inhibition": "inactive: 40.2%"},
      {"smiles": "CCCCn1nnnc1C(CCc1ccccc1)N1CCC2(CC1)C(=O)NCN2c1ccccc1", "note": "(configuration not stated)", "Potency": "inconclusive: 39.8 µM [inhibitor, single point]"},
      {"smiles": "CC(C)(C)CC(C)(C)c1ccc(O)cc1", "Potency": "inconclusive: 44.7 µM [inhibitor, partial curve]"},
      {"smiles": "O=P1(N(CCCl)CCCl)NCCCO1", "note": "(configuration not stated)", "Potency": "inconclusive: 19.3 µM [inhibitor, partial curve, poor fit]"},
      {"smiles": "COC1CC2C=C(C)C=CC=CC(=O)NC(c3ccccc3)CC=CCCC(O)CC(=O)C2=C1O", "note": "(configuration not stated)", "Potency": "active: 2.82 µM"},
      {"smiles": "COC(=O)C1=C(c2ccccc2OCc2ccccc2)C[C@@H]2CC[C@H]1N2C(=O)NCc1ccc(N(C)C)cc1", "Potency": "inconclusive: 39.8 µM [inhibitor, partial curve, poor fit]"},
      {"smiles": "COc1cc(OC)c(OC)cc1CNC(C)C(O)c1ccccc1", "note": "(configuration not stated)", "activity change, negative = inhibition": "inactive: -3.96%"},
      {"smiles": "CCOC(=O)C(NC(C)=O)C(OC(C)=O)c1cccc(N(CCCl)CCCl)c1", "note": "(configuration not stated)", "Potency": "inconclusive: 28.2 µM [inhibitor, partial curve, poor fit]"},
      {"smiles": "Cc1nc(C)c(C(=O)NN=Cc2ccc(N(CCCl)CCCl)cc2)s1", "Potency": "inconclusive: 15.8 µM [inhibitor, partial curve]"},
      {"smiles": "O=C(CCc1ccccc1)N1Cc2cc(-c3cccc(F)c3)ccc2-n2nncc2C1", "Potency": "inconclusive: 35.5 µM [inhibitor, single point]"},
      {"smiles": "CCOc1cc2c(cc1OCC)-n1cccc1C(c1ccc(C(C)C)cc1)NC2", "note": "(configuration not stated)", "Potency": "inconclusive: 28.2 µM [inhibitor, single point]"},
      {"smiles": "CCOC(=O)[C@]12Cc3cc(Cl)ccc3[C@H]1N(C1CCCCC1)C(=O)c1cc(OC)ccc12", "Potency": "active: 2.24 µM"},
      {"smiles": "Cc1cccc(Cc2cnc[nH]2)c1C", "activity change, negative = inhibition": "inactive: 1.74%"},
      {"smiles": "Cc1c(C(=O)N2CCC3(CC2)OCCO3)sc2ncnc(N3CCN(c4ccccn4)CC3)c12", "Potency": "inconclusive: 25.1 µM [inhibitor, single point]"},
      {"smiles": "CCOC(=O)[C@]12Cc3cc4c(cc3[C@H]1N(Cc1ccccc1)C(=O)c1ccccc12)OCO4", "Potency": "inconclusive: 28.2 µM [inhibitor, single point]"},
      {"smiles": "CN(C)c1ccc(/C=C/C=C2/C(=O)NC(=O)N(c3ccccc3)C2=O)cc1", "Potency": "inconclusive: 9.47 µM [inhibitor, partial curve, poor fit]"},
      {"smiles": "Cc1ccc(Cl)cc1NC(=O)N(Cc1ccc2c(c1)OCO2)C1CCN(Cc2ccccc2)CC1", "Potency": "inconclusive: 39.8 µM [inhibitor, single point]"},
      {"smiles": "CC(C)CCn1c(N)c(C(=O)OCC2CCCO2)c2nc3ccccc3nc21", "note": "(configuration not stated)", "activity change, negative = inhibition": "inactive: -7.92%"},
      {"smiles": "CN1CSC(=S)N(C)C1", "activity change, negative = inhibition": "inactive: -17.8%"},
      {"smiles": "O=C1NCN(c2ccccc2)C12CCN(C(c1ccnc3ccccc13)c1nnnn1-c1ccc3c(c1)OCCO3)CC2", "note": "(configuration not stated)", "Potency": "inconclusive: 39.8 µM [inhibitor, single point]"},
      {"smiles": "CCOC(=O)N(c1ccccc1)P1(=S)OCCO1", "activity change, negative = inhibition": "inactive: 2.93%"},
      {"smiles": "Cc1ccc(-n2c(O)c(C=Nc3ccc(Br)cn3)c(=O)[nH]c2=O)cc1", "activity change, negative = inhibition": "inactive: -10.6%"},
      {"smiles": "Cc1cccc(-c2nc(CN3C(=O)CN=C(c4ccccc4)c4ccccc43)c(C)o2)c1", "Potency": "inconclusive: 25.1 µM [inhibitor, single point]"},
      {"smiles": "CC(=O)O[C@@]12CO[C@H]1C[C@H](O)[C@@]1(C)C(=O)[C@H](O)C3=C(C)[C@@H](O)C[C@@](O)([C@@H](OC(=O)c4ccccc4)[C@@H]21)C3(C)C", "activity change, negative = inhibition": "inactive: -7.46%"},
      {"smiles": "O=C1NCN(c2ccccc2)C12CCN(C(c1cc3ccccc3o1)c1nnnn1Cc1ccccc1)CC2", "note": "(configuration not stated)", "Potency": "inconclusive: 39.8 µM [inhibitor, single point]"},
      {"smiles": "Cc1cccc(C)c1-n1nnnc1C(c1ccccc1)N1CCC2(CC1)C(=O)NCN2c1ccccc1", "note": "(configuration not stated)", "Potency": "inconclusive: 39.8 µM [inhibitor, single point]"},
      {"smiles": "O=c1[nH]c2ccccc2n1C1CCN(C(c2ccccc2)c2nnnn2Cc2ccccc2)CC1", "note": "(configuration not stated)", "Potency": "active: 25.1 µM"},
      {"smiles": "CCOc1ccc(N2C(=O)NC(=O)/C(=C\\c3cc(OC)c(OC)cc3[N+](=O)[O-])C2=O)cc1", "Potency": "inconclusive: 0.597 µM [inhibitor, partial curve, poor fit]"},
      {"smiles": "CC(C)c1oc(=O)cc2c1[C@@H](O)[C@H]1OC(=O)[C@@]3(C)CC[C@@H](O)[C@@]2(C)C13", "note": "(some centres not stated)", "Potency": "active: 12.6 µM"},
      {"smiles": "CN=C(SCC(=O)c1cccc(Cl)c1)c1c(O)n(C)c(=O)n(C)c1=O", "Potency": "inconclusive: 12.6 µM [inhibitor, partial curve, poor fit]"},
      {"smiles": "CCOC(=O)[C@]12Cc3c(cc(OC)c(OC)c3OC)[C@H]1N(C(C)C)C(=O)c1ccccc12", "Potency": "inconclusive: 39.8 µM [inhibitor, single point]"},
      {"smiles": "CCOC(=O)c1c(C)n(Cc2ccccc2)c2ccc(OCC(O)Cn3nc(C)nc3C)cc12", "note": "(configuration not stated)", "Potency": "inconclusive: 39.8 µM [inhibitor, single point]"},
      {"smiles": "S=P(Nn1cnnc1)(c1ccc(Br)cc1)c1ccc(Br)cc1", "Potency": "inconclusive: 0.947 µM [inhibitor, partial curve, poor fit]"},
      {"smiles": "O=Cc1cn(Cc2ccccc2F)c2ccccc12", "Potency": "inconclusive: 15.8 µM [inhibitor, partial curve, poor fit]"},
      {"smiles": "N=c1c2c(n(Cc3ccc(Cl)cc3Cl)c3c1CCC3)CCCC2", "Potency": "inconclusive: 14.1 µM [inhibitor, partial curve]"},
      {"smiles": "COC(=O)C1=C(c2ccc(F)cc2OCc2ccccc2)C[C@@H]2CC[C@H]1N2C(=O)NCCOc1ccccc1", "Potency": "inconclusive: 39.8 µM [inhibitor, partial curve, poor fit]"},
      {"smiles": "COC(=O)C1=C(c2ccc(OC(F)(F)F)cc2)C[C@@H]2CC[C@H]1N2C(=O)NCCOc1ccccc1Cl", "Potency": "inconclusive: 31.6 µM [inhibitor, single point]"},
      {"smiles": "CCOC(=O)c1c(N)n(CCN2CCCCC2)c2nc3ccccc3nc12", "Potency": "inconclusive: 15.8 µM [inhibitor, partial curve, poor fit]"},
      {"smiles": "CCCCCn1c(=O)c(C(=O)NCc2ccccn2)c(O)c2ccccc21", "Potency": "inconclusive: 31.6 µM [inhibitor, single point]"},
      {"smiles": "C[C@]12C/C(=C/O)C(=O)C[C@@H]1CC[C@@H]1[C@@H]2CC[C@@]2(C)[C@H]1CC[C@]2(C)O", "Potency": "inconclusive: 31.6 µM [inhibitor, partial curve]"},
      {"smiles": "CNC(=O)N1N=C(c2ccc(N)cc2)c2cc3c(cc2CC1C)OCO3", "note": "(configuration not stated)", "activity change, negative = inhibition": "inactive: 87.1%"},
      {"smiles": "Cc1ccc(Cn2cccc(C(=O)Nc3ccc4c(c3)OCO4)c2=O)cc1", "activity change, negative = inhibition": "inactive: 0.785%"},
      {"smiles": "CC1=NN=C(c2ccc(N)cc2)c2cc3c(cc2C1)OCO3", "Potency": "inconclusive: 28.2 µM [inhibitor, partial curve, poor fit]"},
      {"smiles": "CCOC(=O)[C@]12Cc3cc(OC)ccc3[C@H]1N(C(C)C)C(=O)c1ccccc12", "Potency": "active: 17.8 µM"},
      {"smiles": "CCOC(=O)[C@]12Cc3ccccc3[C@H]1N(C1CCCCC1)C(=O)c1cc(OC)ccc12", "Potency": "active: 7.94 µM"},
      {"smiles": "CCC(C)OC(=O)c1c(N)n(Cc2cccs2)c2nc3ccccc3nc12", "note": "(configuration not stated)", "Potency": "inconclusive: 31.6 µM [inhibitor, single point]"},
      {"smiles": "CCOC(=O)[C@]12Cc3ccccc3[C@H]1N(C)C(=O)c1cc(OC)ccc12", "Potency": "inconclusive: 39.8 µM [inhibitor, single point]"},
      {"smiles": "O=C1NC(=S)N(c2ccccc2F)C(=O)/C1=C\\c1cccs1", "Potency": "inconclusive: 39.8 µM [inhibitor, single point]"},
      {"smiles": "CC12CC[C@H]3[C@@H](CCC4(O)C[C@H](O)CCC34/C=N/NC(=O)c3ccccc3[N+](=O)[O-])C1(O)CCC2C1=CC(=O)OC1", "note": "(some centres not stated)", "Potency": "inconclusive: 25.1 µM [inhibitor, single point]"},
      {"smiles": "CCC(=O)O[C@@H]1C=C2CCC3C(CCC4(C)C3CC[C@@H]4OC(=O)CC)C2CC1", "note": "(some centres not stated)", "activity change, negative = inhibition": "inactive: -0.315%"},
      {"smiles": "NC(Cc1ccc(Cl)cc1)c1csc(Nc2cnccn2)n1", "note": "(configuration not stated)", "Potency": "inconclusive: 39.8 µM [inhibitor, single point]"},
      {"smiles": "Cc1ccccc1-n1c(Cn2ncc3c(N)ncnc32)nc2cccc(C)c2c1=O", "Potency": "inconclusive: 3.85 µM [inhibitor, partial curve, poor fit]"},
      {"smiles": "C[N+](C)(C)CC1CCCc2ccccc2C1=O", "note": "(configuration not stated)", "Potency": "inconclusive: 39.8 µM [inhibitor, single point]"},
      {"smiles": "O=C(NN=Cc1ccc(N(CCCl)CCCl)cc1Cl)c1cccnc1", "Potency": "inconclusive: 1.58 µM [inhibitor, full curve]"},
      {"smiles": "C=C1C(=O)OC2C1CCC(C)C1(O)C=CC(=O)C21C", "note": "(configuration not stated)", "Potency": "active: 11.2 µM"},
      {"smiles": "CS(=O)(=O)c1ccc(C2=C(CNC(=O)c3ccc([N+](=O)[O-])cc3)[C@H]3CC[C@@H](C2)N3CCOc2ccccc2)cc1", "activity change, negative = inhibition": "inactive: -10.6%"},
      {"smiles": "Cc1ccc(-c2cc(-c3ccccc3)cc(-c3ccccc3)[n+]2-c2ccccc2)cc1", "Potency": "active: 3.55 µM"},
      {"smiles": "COC(=O)C1=C(c2ccc(F)cc2OCc2ccccc2)C[C@@H]2CC[C@H]1N2C(=O)NCc1ccc(OC)cc1", "Potency": "inconclusive: 39.8 µM [inhibitor, partial curve, poor fit]"},
      {"smiles": "COC(=O)C1=C(c2ccc(F)cc2OCc2ccccc2)C[C@@H]2CC[C@H]1N2C(=O)NCCc1ccc(F)cc1", "Potency": "inconclusive: 28.2 µM [inhibitor, single point]"},
      {"smiles": "CC(NCc1cccc(Cl)c1Cl)C(O)c1ccccc1", "note": "(configuration not stated)", "Potency": "inconclusive: 3.36 µM [inhibitor, partial curve, poor fit]"}
    ]}
  ]
}
